# Experimental data reported in a collection of fitness landscapes (doi:10.1126/science.1257360).
# This is one part of the list.
# B1: PhoQ; a variant is named by its letters at X, in order, P23837 (parent)
# chain: MKKLLRLFFPLSLRVRFLLATAAVVLVLSLAYGMVALIGYSVSFDKTTFRLLRGESNLFYTLAKWENNKLHVELPENIDKQSPTMTLIYDENGQLLWAQRDVPWLMKMIQPDWLKSNGFHEIEADVNDTSLLLSGDHSIQQQLQEVREDDDDAEMTHSVAVNVYPATSRMPKLTIVVVDTIPVELKSSYMVWSWFIYVLSANLLLVIPLLWVAAWWSLRPIEALAKEVRELEEHNRELLNPATTRELTSLVRNLNRLLKSERERYDKYRTTLTDLTHSLKTPLXXLQXXLRSLRSEKMSVSDAEPVMLEQISRISQQIGYYLHRASMRGGTLLSRELHPVAPLLDNLTSALNKVYQRKGVNISLDISPEISFVGEQNDFVEVMGNVLDNACKYCLEFVEISARQTDEHLYIVVEDDGPGIPLSKREVIFDRGQRVDTLRPGQGVGLAVAREITEQYEGKIVAGESMLGGARMEVIFGRQHSAPKDE
# Variants of: B1
# Experiment: enrichment ratio after two sorts for PhoP signalling (ratio (wild type AVST 3.29)); higher = more functional
# Conditions: with PhoP (E. coli)
row,Variant,enrichment ratio
1,FNMC,0.593
2,HYPQ,≤ 0.25
3,VWIP,≤ 0.25
4,YTCR,≤ 0.25
5,DRQA,≤ 0.25
6,TCKI,≤ 0.25
7,PTYG,≤ 0.25
8,WKEK,≤ 0.25
9,KRWV,≤ 0.25
10,PHYS,≤ 0.25
11,SAKM,≤ 0.25
12,YNKW,≤ 0.25
13,AVIW,≤ 0.25
14,VFNN,≤ 0.25
15,PKWV,≤ 0.25
16,TLAC,9.06
17,PIRH,≤ 0.25
18,NYSG,≤ 0.25
19,EEIG,≤ 0.25
20,YPKF,≤ 0.25
21,PLFY,≤ 0.25
22,SKVY,4.33
23,SGSK,≤ 0.25
24,LDWN,≤ 0.25

row,Variant,enrichment ratio
1,LKWV,≤ 0.25
2,YEAS,≤ 0.25
3,DFKK,≤ 0.25
4,THCD,≤ 0.25
5,FHHN,≤ 0.25
6,ELLI,≤ 0.25
7,RAYQ,≤ 0.25
8,TPWA,≤ 0.25
9,RIFY,≤ 0.25
10,NSHM,≤ 0.25
11,QRMC,≤ 0.25
12,KGHA,≤ 0.25
13,RMEG,≤ 0.25
14,VCFS,≤ 0.25
15,KALN,≤ 0.25
16,GAQP,≤ 0.25
17,WFGQ,≤ 0.25
18,IRMF,≤ 0.25
19,YAFW,≤ 0.25
20,GPLF,≤ 0.25
21,YHDL,≤ 0.25
22,PMCI,≤ 0.25
23,WEYI,≤ 0.25
24,NHTY,≤ 0.25

row,Variant,enrichment ratio
1,TMLF,≤ 0.25
2,DQEF,≤ 0.25
3,FERN,≤ 0.25
4,QTHQ,0.76
5,PQDP,≤ 0.25
6,WSIC,≤ 0.25
7,FPQV,≤ 0.25
8,NTEG,≤ 0.25
9,DFQK,≤ 0.25
10,PNIP,≤ 0.25
11,FCYW,≤ 0.25
12,QQEL,≤ 0.25
13,SCAI,6.24
14,AFKT,≤ 0.25
15,VFYQ,≤ 0.25
16,VIWH,≤ 0.25
17,KEDK,≤ 0.25
18,DHNL,≤ 0.25
19,PKYV,≤ 0.25
20,ICFY,≤ 0.25
21,TEDV,≤ 0.25
22,HDPD,1.1
23,EFEA,≤ 0.25
24,IMWC,≤ 0.25

row,Variant,enrichment ratio
1,TSVE,≤ 0.25
2,VVAY,≤ 0.25
3,QFPQ,≤ 0.25
4,QIYV,0.3
5,NLYI,≤ 0.25
6,EERH,≤ 0.25
7,FHFI,≤ 0.25
8,GWKY,≤ 0.25
9,ACVV,≤ 0.25
10,MRVW,≤ 0.25
11,YGWI,≤ 0.25
12,DHPV,≤ 0.25
13,MMIF,≤ 0.25
14,AWTI,≤ 0.25
15,VHGG,≤ 0.25
16,FNIM,≤ 0.25
17,HQLV,≤ 0.25
18,RWEV,≤ 0.25
19,MPPM,≤ 0.25
20,WPGS,≤ 0.25
21,ALTH,5.32
22,TKAD,≤ 0.25
23,WILN,≤ 0.25
24,TWSF,≤ 0.25

row,Variant,enrichment ratio
1,RMYP,≤ 0.25
2,HNQM,≤ 0.25
3,YYLQ,≤ 0.25
4,FVAV,≤ 0.25
5,HEAN,≤ 0.25
6,KQYI,≤ 0.25
7,DPFP,≤ 0.25
8,SHSK,0.407
9,FRNF,0.32
10,IIFF,≤ 0.25
11,VETE,≤ 0.25
12,PEMW,≤ 0.25
13,VYLW,≤ 0.25
14,SWGV,≤ 0.25
15,FCMY,≤ 0.25
16,YVTY,≤ 0.25
17,PQIC,≤ 0.25
18,DWYN,≤ 0.25
19,PLPG,≤ 0.25
20,RNDM,≤ 0.25
21,FLYT,≤ 0.25
22,YPLL,≤ 0.25
23,PILP,≤ 0.25
24,GSMC,9.78

row,Variant,enrichment ratio
1,SEFM,7.47
2,FQAA,≤ 0.25
3,TVII,≤ 0.25
4,WRAH,≤ 0.25
5,QCVS,≤ 0.25
6,LVTA,≤ 0.25
7,RPGH,≤ 0.25
8,EHDI,≤ 0.25
9,WLPG,≤ 0.25
10,GSIC,3.78
11,YCGL,≤ 0.25
12,THFE,≤ 0.25
13,FAYR,≤ 0.25
14,EFML,≤ 0.25
15,RCRS,≤ 0.25
16,HFFH,≤ 0.25
17,IQII,≤ 0.25
18,VSKF,≤ 0.25
19,HSIG,≤ 0.25
20,KGRP,≤ 0.25
21,LEAP,≤ 0.25
22,FAHC,≤ 0.25
23,QQDS,6.37
24,KAHV,≤ 0.25

row,Variant,enrichment ratio
1,STCF,15.9
2,TLCC,2.25
3,KYPY,≤ 0.25
4,FIKI,≤ 0.25
5,YVGY,≤ 0.25
6,QNGY,≤ 0.25
7,LRAQ,≤ 0.25
8,AGRD,≤ 0.25
9,KQNY,≤ 0.25
10,SWLA,0.478
11,YSLQ,6.56
12,RHTR,≤ 0.25
13,LQKQ,≤ 0.25
14,NTWA,≤ 0.25
15,FPGT,≤ 0.25
16,FRMF,≤ 0.25
17,HLGS,≤ 0.25
18,TYEP,≤ 0.25
19,LAMN,5.37
20,EGNG,≤ 0.25
21,FTWF,≤ 0.25
22,DCKY,≤ 0.25
23,SDRT,2.13
24,LHCL,≤ 0.25

row,Variant,enrichment ratio
1,WVWM,≤ 0.25
2,LFCM,≤ 0.25
3,VCPE,≤ 0.25
4,DNVY,≤ 0.25
5,RCST,≤ 0.25
6,ANIM,4.25
7,DWPF,≤ 0.25
8,YYES,≤ 0.25
9,HEHG,≤ 0.25
10,YMSG,≤ 0.25
11,IVFI,≤ 0.25
12,LALS,0.926
13,YPTD,≤ 0.25
14,EDFL,≤ 0.25
15,VHEA,≤ 0.25
16,HWVR,≤ 0.25
17,WQIP,≤ 0.25
18,LERP,≤ 0.25
19,VQCH,≤ 0.25
20,GNMC,≤ 0.25
21,CQSL,≤ 0.25
22,GCKN,≤ 0.25
23,TAIF,≤ 0.25
24,LILM,≤ 0.25

row,Variant,enrichment ratio
1,MDQM,≤ 0.25
2,FWFR,≤ 0.25
3,GVWI,≤ 0.25
4,TCLQ,6.47
5,KMRY,≤ 0.25
6,SKEA,≤ 0.25
7,WICS,≤ 0.25
8,VSIL,≤ 0.25
9,DEAN,≤ 0.25
10,QKLC,≤ 0.25
11,MTMA,≤ 0.25
12,SKTP,≤ 0.25
13,DHLL,≤ 0.25
14,NCWR,≤ 0.25
15,TKYW,≤ 0.25
16,MWFK,≤ 0.25
17,RPFS,≤ 0.25
18,SLFH,≤ 0.25
19,QPVG,≤ 0.25
20,NIHF,≤ 0.25
21,PVMK,≤ 0.25
22,FDPF,≤ 0.25
23,RCGT,≤ 0.25
24,EQVI,≤ 0.25

row,Variant,enrichment ratio
1,MSSI,7.12
2,ALIK,≤ 0.25
3,TMLC,13.8
4,RGRG,≤ 0.25
5,FAAV,≤ 0.25
6,SCLH,8.47
7,GIIK,≤ 0.25
8,NMPS,≤ 0.25
9,HGKR,≤ 0.25
10,HWVW,≤ 0.25
11,LHPY,≤ 0.25
12,FCWI,≤ 0.25
13,TFFQ,≤ 0.25
14,IHCD,≤ 0.25
15,RNNW,≤ 0.25
16,THII,≤ 0.25
17,MCPS,≤ 0.25
18,YKTC,≤ 0.25
19,RIVS,≤ 0.25
20,DLMR,≤ 0.25
21,MLAY,0.299
22,EHWS,≤ 0.25
23,YWVY,≤ 0.25
24,ANNF,12.9

row,Variant,enrichment ratio
1,YYWM,≤ 0.25
2,KTMF,≤ 0.25
3,TFYE,≤ 0.25
4,LNKC,≤ 0.25
5,RCYK,≤ 0.25
6,RKSV,≤ 0.25
7,FGAL,≤ 0.25
8,MQPV,≤ 0.25
9,RFCS,≤ 0.25
10,APPN,≤ 0.25
11,NECA,≤ 0.25
12,HEHW,≤ 0.25
13,PVHA,≤ 0.25
14,WYPQ,≤ 0.25
15,TIAQ,5.43
16,DAIQ,≤ 0.25
17,HPMC,≤ 0.25
18,FVGV,≤ 0.25
19,LLFC,≤ 0.25
20,QHMC,≤ 0.25
21,WAFI,≤ 0.25
22,GQGP,≤ 0.25
23,YMHT,≤ 0.25
24,AVST,3.29

row,Variant,enrichment ratio
1,VNVN,≤ 0.25
2,FQAR,≤ 0.25
3,DGDC,≤ 0.25
4,RKQP,≤ 0.25
5,GAKL,≤ 0.25
6,VHYI,≤ 0.25
7,GNCR,≤ 0.25
8,SPAA,≤ 0.25
9,EVIN,≤ 0.25
10,MHGM,0.817
11,GHNH,≤ 0.25
12,WYFF,≤ 0.25
13,RTMQ,≤ 0.25
14,ARKT,≤ 0.25
15,KHPL,≤ 0.25
16,KSRM,≤ 0.25
17,SWNF,≤ 0.25
18,QYHN,≤ 0.25
19,GKIM,8.59
20,PNYF,≤ 0.25
21,NCFR,≤ 0.25
22,IMYC,≤ 0.25
23,NRNS,≤ 0.25
24,LRTF,≤ 0.25

row,Variant,enrichment ratio
1,YCLE,1.87
2,NCFE,≤ 0.25
3,AKIG,0.984
4,MVTG,≤ 0.25
5,YPYT,≤ 0.25
6,AEAA,12.1
7,FNRC,≤ 0.25
8,RPHA,≤ 0.25
9,WNCW,≤ 0.25
10,GRIV,≤ 0.25
11,LISL,≤ 0.25
12,MNMP,≤ 0.25
13,YSSS,≤ 0.25
14,RHMR,≤ 0.25
15,AKNV,≤ 0.25
16,FVFA,≤ 0.25
17,IGHN,≤ 0.25
18,YTND,≤ 0.25
